In publication PMC12136788:
This is one part of the list.

T1: UNK ZnF1-3 (human, UniProt Q9C0B0 31-174)
T1 sequence: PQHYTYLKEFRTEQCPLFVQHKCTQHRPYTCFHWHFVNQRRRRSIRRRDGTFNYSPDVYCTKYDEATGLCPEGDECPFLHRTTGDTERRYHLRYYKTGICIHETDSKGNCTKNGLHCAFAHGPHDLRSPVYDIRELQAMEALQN

B1: chr7:99579578:99579579:+_ENSMUSG00000052572_ENSMUST00000098308|mus_mus|motif|central (ssRNA)
RNA: GGGAGUUCUACAGUCCGACGAUCAAAUCUCACAGAUUGCACACUGGUUCCGUAUAAAUUGUCAUUGUACUGGCCAGCUUCGGUAAAUUUGUGCUCUUGGAUAUCUUUCUCCAUUUGUUCUCUAGAAAUGACAAAGUGAUAGUCCAACAGAGGAUUGAGCAUCA
B2: chr17:7479872:7479873:+_ENSG00000161960_ENST00000293831|hu_hu|motif|central (ssRNA)
RNA: GGGAGUUCUACAGUCCGACGAUCAGCACGCACGUUGGUGCCCCCGAUACAGGCGUGACAGGAGGCGCCCAUGUAGUCUCCGGGUGCCAUGACCACCUUCUGUAUCUGCUGAGCCAAUUCUCGAGUGGGUGCUAGGACCAAGGCCAACAGAGGAUUGAGCAUCA
B3: chr7:151048522:151048523:+_ENSG00000013374_ENST00000566856|hu_mus|hu_hu_hu_mus_True|38_48 (ssRNA)
RNA: GGGAGUUCUACAGUCCGACGAUCCUGUUUCUUAUUUAUUACGAUCUUGAUGUAAUUUUCUUGAAAUCCGAAAGUUUCAGCUAUUUGGGACCUCAGUUCUCUGCCAGUGACAUGCAAGCGGGUCUCCAACAAGCUUUUCUUAUCCAACAGAGGAUUGAGCAUCA
B4: 104373753_104374693_605_3pUTR_ENSG00000139372_ENST00000392872|human|control|control (ssRNA)
RNA: GGGAGUUCUACAGUCCGACGAUCAUUAGUCCCGGGUUUAUGCCAAUAAUGACAAUGUCCAGAUUGAAGGUCAAAAUAUCGGGGAGAGUCUUGGUCAGAAGUUCAGCUUCUGAAACACCAUUAAAACGGUCUACUUUUCUUUUUCAACAGAGGAUUGAGCAUCA
B5: 10487840_10492479_495_CDS_ENSMUSG00000024743_ENSMUST00000169121|mouse|control|control (ssRNA)
RNA: GGGAGUUCUACAGUCCGACGAUCCUCCAAGGAAUUCUUGUAGCGUUUGCCCAGUUUGCGCUGACACCAGUGGCACAGGCCGCAGAGGACGAUAGUGACGCUAAGGCUGACGGUGAUGAUUGCAGAGACCAGCAGGACAUCGCGCAACAGAGGAUUGAGCAUCA
B6: chr7:149068622:149068623:-_ENSMUSG00000025139_ENSMUST00000001950|mus_hu|mus_mus_mus_hu_False|8_48 (ssRNA)
RNA: GGGAGUUCUACAGUCCGACGAUCGUGAGGCCUCUGAGUGUGGCUUGUGGUCUGUCCUGGGUUAGAGUUGUUAAUAUCACGGAACAUACCACUUAAGACGUUCCAGUCCCGCCUGACACCUUCAUUCGCAAGAGGGCAGAAAUCCAACAGAGGAUUGAGCAUCA
B7: 42223075_42223195_2112_3pUTR_ENSMUSG00000037287_ENSMUST00000125995|mouse|control|control (ssRNA)
RNA: GGGAGUUCUACAGUCCGACGAUCGGCGCAGAGGUGCUGGAGCGGUUAGAAUGCCCAGCGCAGGCUUCCAGGGGAGUAGCGAGUUUCCCAGGGCUAACACUCCGCCUACUUCUCUCUAAAACCUAACCGAGUUCCUGAGAUCAGCAACAGAGGAUUGAGCAUCA
B8: chr1:33854737:33854738:-_ENSMUSG00000042197_ENSMUST00000044455|mus_mus|FALSE|FALSE (ssRNA)
RNA: GGGAGUUCUACAGUCCGACGAUCGGUAACUUCCUCCUUUAAAAUUUAAGUGAAAAGAACUAACUAGUUUGUAUGCCCACUAAAAACCAUACAGAACCAAUCUGACCAAUUGAAUGACAUGCAUAAGAUAUACCCACAGUGACACAACAGAGGAUUGAGCAUCA
B9: 120571774_120571894_2467_3pUTR_ENSMUSG00000090100_ENSMUST00000028740|mouse|control|control (ssRNA)
RNA: GGGAGUUCUACAGUCCGACGAUCGUGUCACCAUCUCUCAUGUUGGGUAACAUGUCAUGACCAGUGUGAUCUAUCUGAAGUCCCAAAUCCACUCUGCUUCCUCCGCUAGCUAGUUCACCCUCUGUCACAACCAAGCCGGAGAAGCAACAGAGGAUUGAGCAUCA
B10: chr7:141450121:141450122:+_ENSG00000106028_ENST00000265304|hu_mus|hu_hu_hu_mus_True|18_88 (ssRNA)
RNA: GGGAGUUCUACAGUCCGACGAUCUCAUCCGUUCUAUGCCUUUUCUUUCGUCUGGUCACUCAGAAAUAUAAUGUUAUCAGCUAUGAUUGUUGUUGCUUGCCGCCUCACAUUGUUUUUAUCCAUGUAUUCGCCAUAGUCCACUUUCAACAGAGGAUUGAGCAUCA
B11: chr7:75932113:75932114:+_ENSG00000106211_ENST00000248553|hu_hu|hu_hu_hu_mus_False|8_108 (ssRNA)
RNA: GGGAGUUCUACAGUCCGACGAUCCUGCGACCACUCCUCGGGCAACCGGGGCACCCCGAAAGCUUGAUCGAAGAGGCGGCUGUGUGCAGGGUACCAGUCCCGGAAUGGUUCCCAGCUCGGGCUCCGCAGCGAGAAGGAGGGCACCAACAGAGGAUUGAGCAUCA
B12: chr11:48615247:48615248:+_ENSMUSG00000020372_ENSMUST00000020640|perfect_dup|motif|central (ssRNA)
RNA: GGGAGUUCUACAGUCCGACGAUCUCCGUCCCAGGAGCCCGAGAGGGCAAACUGACCAUCAGAGGAGAUAACAACAUCACGGACGAAGUGGGAGUGACCUCUCAGAGCACGCUGUGGUAUGCCAUAGUUGGUCUCAUCUCUGGUCAACAGAGGAUUGAGCAUCA
B13: 32646967_32647087_477_CDS_ENSG00000084652_ENST00000373610|human|control|control (ssRNA)
RNA: GGGAGUUCUACAGUCCGACGAUCCCCCUUGGAGGGUUCCUUCUCUCCAUUGACUACUGGAGUUGGUUCAGGCUCCCCAUUCCUUGCCACAUAGGUCCGGGACUUCUCUGCAUCUUCGGGUUCAGCCGGCUCACCCUGUGCCCCCAACAGAGGAUUGAGCAUCA
B14: chr2:32530670:32530671:+_ENSG00000119820_ENST00000437765|hu_hu|motif|central (ssRNA)
RNA: GGGAGUUCUACAGUCCGACGAUCCCAAUUCCUUCAGCAAGAAUUCCCAGCCUACACACAAAUUUAACACCAUCUUUUUCGGUUCAUGUAUAACUUGGAUCACACACCAGUAUAUAACGACAAAAAAUAAAUGUAUAAUAAAAACAACAGAGGAUUGAGCAUCA
B15: chr9:51871721:51871722:+_ENSMUSG00000032050_ENSMUST00000163153|mus_mus|motif|central (ssRNA)
RNA: GGGAGUUCUACAGUCCGACGAUCUGUUUUUACAACCUGGUCAAAAAGUUGUUUGCCAGUUGUAUUGGGCUGGAUGGCAAAUUCGGGCUCAGCGUCCAUUGUAGUUACUCUUACAUUGAUUGGCUUCGGCAUUUUCUUUUUCUUCAACAGAGGAUUGAGCAUCA
B16: 152482986_152483106_2665_3pUTR_ENSMUSG00000039037_ENSMUST00000044278|mouse|control|control (ssRNA)
RNA: GGGAGUUCUACAGUCCGACGAUCUGAAUAGUUCUACUUAAUGAAAGGGCAUGGGACAUUAUCACUAAUUAAAAAGAUGGGAAAGAACUGGUGGUAUGAGACACUUUAUUCACAAGUCCUGUCCUGUUUGUAGAGAAUGCCUGUCAACAGAGGAUUGAGCAUCA
B17: chr17:65740002:65740003:+_ENSG00000130935_ENST00000581375|hu_hu|hu_hu_hu_mus_False|28_38 (ssRNA)
RNA: GGGAGUUCUACAGUCCGACGAUCAACAAAUCUUUCUUCCCUGGACGAACAGGAAGAUUCAUAUUAAAAAAAAUAUAUAUCCAUCAAGUUAGGUGUGUAAUAUCAGAAGAGCUCCAGAGCACUUUGGGAGGUGGAUCUCUGAGUCAACAGAGGAUUGAGCAUCA
B18: chr7:150253219:150253220:+_ENSMUSG00000037706_ENSMUST00000037941|mus_hu|FALSE|FALSE (ssRNA)
RNA: GGGAGUUCUACAGUCCGACGAUCCCGGAUGCCACAGCACAGCACCAUGCUCAGGAUCAUCUCGAAGAUCAUGAUCACAGCGACCACGAUGGCAGCAAUGCCGAUGAGGUACAGCUUCCCGGAGAAGAGGUCAUCGAUCUUCUGCAACAGAGGAUUGAGCAUCA
B19: chr5:21408736:21408737:-_ENSMUSG00000042453_ENSMUST00000161356|mus_hu|mus_mus_mus_hu_False|8_28 (ssRNA)
RNA: GGGAGUUCUACAGUCCGACGAUCGUUGACAGAGUUGUAGAUGGUGGCUUCAUGGAACUGGAAAGGGGAGCAGCCAAUGCUGUUAGAAGAGGAAGGAAGGCACUGGGUCUGCACGAGCUGCCAGGAAUCGGACCUUGCAUCCUUCAACAGAGGAUUGAGCAUCA
B20: chr5:128440902:128440903:+_ENSG00000066583_ENST00000173527|hu_mus|hu_hu_hu_mus_True|1_98 (ssRNA)
RNA: GGGAGUUCUACAGUCCGACGAUCUUGAACGGUGCUGCCAAGACCUUUGGGGUAUUGUUCCGUUAUGAUAACUGGAAUCCCUAAGAUCCGAGCUCCUUGCAACAGUCUCUGUCCCACACUAAUGAUGUCCCCAAAGUACUUGAUCAACAGAGGAUUGAGCAUCA
B21: chr12:39763582:39763583:-_ENSG00000139116_ENST00000544797|hu_mus|hu_hu_hu_mus_False|48_108 (ssRNA)
RNA: GGGAGUUCUACAGUCCGACGAUCCUCUAAGAAUUGGGCAUUCACUUUGAAUUCAGGAGGGGGCAGCCCGUUUUUAAUCGCUGAGGUUUUUUUUUCUUCAAUACUCUUGAACAGGUGUCUAACAGCACGAGAGAUGAUGCCCUGCAACAGAGGAUUGAGCAUCA
B22: chr7:141438946:141438947:+_ENSG00000106028_ENST00000265304|hu_mus|hu_hu_hu_mus_True|18_18 (ssRNA)
RNA: GGGAGUUCUACAGUCCGACGAUCGACGAAAUACCUGUAACACAGGUCUUCGAAACAUGGCUUCUGUUUUUCUUACAACCUAAUCUUUAGGCUUUUCCUAAAGGAAAGAAAGAAAAGGCCCAGCCACUAAAUCAAGAAACUACACAACAGAGGAUUGAGCAUCA

Biological target: T1, UNK ZnF1-3
Assay: nsRBNS (natural sequence RNA bind-n-seq); RBNS binding buffer (assumed for nsRBNS): 25 mM Tris pH 7.5, 150 mM KCl, 3 mM MgCl2, 0.01% Triton X-100, 500 ug/ml BSA, 20 U/ml SUPERase-In, 4 C; UNK is unkempt and MSI1 is Musashi-1; names of the RNAs are library labels; protein concentration not given here; high values mean tight binding

First: B1
Second: B2
The binding signal of the first is lower: 0.803 enrichment R for the first, 1.76 enrichment R for the second.

Going from B3 to B4, the binding signal rises from 0.52 enrichment R to 1.12 enrichment R.

Compared with B5, B6 is lower in binding signal: 1.23 enrichment R for the first, 0.809 enrichment R for the second.

Compared with B7, B8 is lower in binding signal: 1.2 enrichment R for the first, 0.912 enrichment R for the second.

Compared with B9, B10 is lower in binding signal: 0.662 enrichment R for the first, 0.449 enrichment R for the second.

Compared with B11, B12 is higher in binding signal: 1.22 enrichment R for the first, 1.29 enrichment R for the second.

First: B13
Second: B14
The binding signal of the first is lower: 0.958 enrichment R for the first, 3.17 enrichment R for the second.

Going from B15 to B16, the binding signal rises from 0.457 enrichment R to 1.56 enrichment R.

First: B17
Second: B18
The binding signal of the first is higher: 2.27 enrichment R for the first, 0.946 enrichment R for the second.

Going from B19 to B20, the binding signal falls from 1.66 enrichment R to 0.675 enrichment R.

First: B21
Second: B22
The binding signal of the first is higher: 1.81 enrichment R for the first, 0.53 enrichment R for the second.
